Molecules are shown by their SMILES. Out of some 39,000 compounds screened, about 220 (0.56%) showed activity. This is one part of the list.
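Further: static incubation at 37 °C against the wild-type strain, values averaged over two biological replicates.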

In the assay the test system is Escherichia coli K-12 BW25113. As to the kind of experiment: relative growth (OD600 normalised to plate interquartile mean) (fraction); higher = less growth inhibition, active = 0.2 or less. As to conditions: 50 µM; LB; incubation time: overnight (16-24 h).
For `O=C1O[C@@H](c2ccccc2)[C@@H](c2ccccc2)N2[C@@H](c3ccc(O)cc3)[C@]3(C(=O)Nc4ccc(C#CC5=CCCCC5)cc43)[C@@H](C(=O)Nc3nc4ccccc4s3)[C@H]12`, the relative growth is inactive: 1.02. With `CCS(=O)(=O)Nc1ccc2c(c1)C(=O)N(C)[C@@H]1CC[C@H](CC(=O)N[C@@H]3CCN(Cc4ccccc4)C3)O[C@H]1CO2`, the relative growth is inactive: 0.992. Consider `COc1ccc(S(=O)(=O)Nc2ccc3c(c2)C(=O)N([C@H](C)CO)C[C@H](C)[C@H](CN(C)Cc2ccccc2)OCCCC[C@H](C)O3)cc1`, for which the relative growth was inactive: 1. Turning to `Cc1c(Cl)cccc1Nc1ccccc1C(=O)O`, the relative growth was inactive: 0.969. Consider `C[C@@H]1CCCCO[C@H](CN(C)Cc2ccc3c(c2)OCO3)[C@@H](C)CN([C@@H](C)CO)C(=O)c2cc(NS(=O)(=O)c3ccc(Cl)cc3)ccc2O1`, for which the relative growth is inactive: 0.975. The result for `COc1ccccc1S(=O)(=O)N(C)C[C@@H]1OCc2cn(nn2)CCCC(=O)N([C@@H](C)CO)C[C@@H]1C` reads inactive: 0.984; that for `CCS(=O)(=O)N1CC[C@]2(CC1)CN([C@@H](CO)c1[nH]c3cc(ccc3c12)OC)S(=O)(=O)c1ccc(cc1)C`, inactive: 0.99. In the case of `CC(C)NC(=O)N(C)C[C@@H]1Oc2ccc(NS(=O)(=O)c3ccc(F)cc3)cc2CC(=O)N([C@H](C)CO)C[C@@H]1C`, the relative growth was inactive: 0.998. In the case of `C[C@@H]1CCCCO[C@H](CN(C)Cc2ccccc2)[C@@H](C)CN([C@H](C)CO)C(=O)c2cc(NC(=O)CCCCCC(=O)Nc3ccccc3N)ccc2O1`, the relative growth was inactive: 1.01. In the case of `COc1ccc(NC(=O)Nc2ccc3c(c2)CC(=O)N([C@H](C)CO)C[C@H](C)[C@@H](CN(C)Cc2ccc(Oc4ccccc4)cc2)O3)cc1`, the relative growth is inactive: 1.04. In the case of `COc1ccc(S(=O)(=O)Nc2ccc3c(c2)C(=O)N([C@@H](C)CO)C[C@H](C)[C@@H](CN(C)S(=O)(=O)c2cn(C)cn2)OCCCC[C@H](C)O3)cc1`, the relative growth was inactive: 0.994. Regarding `C[C@@H]1CN([C@H](C)CO)C(=O)c2cc(NC(=O)Nc3ccccc3)ccc2O[C@@H](C)CCCCO[C@@H]1CN(C)S(=O)(=O)c1ccc(Cl)cc1`, the relative growth is inactive: 1.

Turning to `C[C@H](CO)N1C[C@H](C)[C@H](CN(C)Cc2ccc(-c3ccccc3)cc2)Oc2ccc(NS(=O)(=O)c3ccccc3)cc2CC1=O`, the relative growth was inactive: 1.04.

Take `COc1ccc(S(=O)(=O)Nc2cccc3c2O[C@H](CN(C)S(=O)(=O)c2ccccc2)[C@H](C)CN([C@H](C)CO)C3=O)cc1`: the relative growth is inactive: 0.986. As for `O=C(Cc1nn[nH]n1)NS(=O)(=O)c1ccccc1`, the relative growth was inactive: 1.06. Take `CC(C)(C)[S@@](=O)N1Cc2cc(C(=O)N[C@@H]3CCN(Cc4ccccc4)C3)nc(-c3cccc(-c4cccnc4)c3)c2[C@H]1CCO`: the relative growth is inactive: 1.03. Consider `Nc1ccn(C2CSC(CO)O2)c(=O)n1` (stereo unspecified), for which the relative growth is inactive: 0.948. As to `CC=C(C)C(=O)OC1C(OC(C)=O)C2(CO)C(O)CC3(C)C(=CCC4C5(C)CCC(OC6OC(C(=O)O)C(OC7OC(CO)C(O)C(O)C7O)C(O)C6OC6OC(CO)C(O)C(O)C6O)C(C)(CO)C5CCC43C)C2CC1(C)C` (stereo unspecified), the relative growth is inactive: 0.74. In the case of `COc1ccc(S(=O)(=O)Nc2ccc3c(c2)C(=O)N([C@H](C)CO)C[C@@H](C)[C@@H](CN(C)S(C)(=O)=O)OCCCC[C@H](C)O3)cc1` it was inactive: 0.99.

As for `C[C@H]1CN([C@@H](C)CO)C(=O)Cc2cc(NC(=O)CCC(F)(F)F)ccc2O[C@@H]1CN(C)S(=O)(=O)c1cccs1`, the relative growth is inactive: 1. As to `CO[C@H]1CN(C)C(=O)c2ccc(NC(=O)Nc3ccccc3)cc2OC[C@H](C)N(C(=O)CN(C)C)C[C@@H]1C`, the relative growth was inactive: 0.925. As to `CN1C(=O)c2cc(NC(=O)C3CCOCC3)ccc2OC[C@@H]2O[C@H](CC(=O)NCc3ccc4c(c3)OCO4)CC[C@H]21`, the relative growth was inactive: 1.05.

`Cc1noc(C)c1NC(=O)N(C)C[C@H]1Oc2ccc(NC(=O)C3CC3)cc2CC(=O)N([C@H](C)CO)C[C@H]1C`: the relative growth was inactive: 1. As for `C[C@@H]1CN([C@H](C)CO)C(=O)c2cccc(NC(=O)Nc3cccc4ccccc34)c2O[C@@H]1CN(C)Cc1ccc(Oc2ccccc2)cc1`, the relative growth is inactive: 0.967. As to `C[C@@H]1CCCCO[C@@H](CN(C)C(=O)Nc2ccc3c(c2)OCO3)[C@H](C)CN([C@@H](C)CO)C(=O)c2cc(NC(=O)CCC(F)(F)F)ccc2O1`, the relative growth is inactive: 0.991.

`COc1ccc(S(=O)(=O)N(C)C[C@@H]2OCCCC[C@H](C)Oc3ccc(NC(=O)C4CCCCC4)cc3C(=O)N([C@H](C)CO)C[C@@H]2C)cc1`: the relative growth is inactive: 1.03. Regarding `CO[C@@H]1CN(C)C(=O)c2ccc(NS(C)(=O)=O)cc2OC[C@H](C)N(C(=O)C2CCCCC2)C[C@H]1C`, the relative growth is inactive: 0.991.

In the case of `C[C@@H]1CCCCO[C@H](CN(C)S(=O)(=O)c2ccc(Cl)cc2)[C@@H](C)CN([C@@H](C)CO)C(=O)c2cc(NC(=O)Nc3ccccc3)ccc2O1`, the relative growth was inactive: 1.04. In the case of `O=C(CCCCCCC(=O)Nc1ccccc1O)N/N=C/[C@H](O)[C@@H](O)[C@@H](O)[C@H](O)C(=O)O` it was inactive: 1.01; in that of `C[C@H](CO)N1C[C@H](C)[C@H](CN(C)S(=O)(=O)c2ccc(C(F)(F)F)cc2)OCc2ccccc2-c2c(n(C)c3ccccc23)C1=O`, inactive: 1.03; in that of `C[C@H](CO)N1C[C@H](C)[C@@H](CN(C)S(C)(=O)=O)Oc2c(NC(=O)CCCCCC(=O)Nc3ccccc3N)cccc2C1=O`, inactive: 0.974. Consider `COc1ccc(S(=O)(=O)N[C@@H]2C=C[C@H](CC(=O)N3CCN(c4ccccc4)CC3)O[C@@H]2CO)cc1`, for which the relative growth is inactive: 0.992. In the case of `C[C@@H]1CN([C@H](C)CO)C(=O)c2cccc(NS(=O)(=O)c3cn(C)cn3)c2O[C@@H]1CN(C)Cc1ccc(C(=O)Nc2ccccc2N)cc1`, the relative growth was inactive: 0.995. As for `Cn1c(=O)[nH]c(=O)c2c1ncn2CCNCc1ccco1`, the relative growth is inactive: 0.913.

As for `C[C@@H]1CN([C@@H](C)CO)C(=O)c2cccc(NC(=O)c3cnccn3)c2O[C@H]1CN(C)Cc1ccc(C(=O)O)cc1`, the relative growth is inactive: 0.993. For the molecule `C[C@@H]1CCCCO[C@@H](CN(C)C(=O)CCCN(C)C)[C@H](C)CN([C@@H](C)CO)C(=O)c2cc(NC(=O)Nc3ccc(C(F)(F)F)cc3)ccc2O1`, the relative growth was inactive: 0.954. On to `C[C@@H]1CN([C@@H](C)CO)C(=O)c2cc(NC(=O)Cc3ccccc3)ccc2O[C@@H](C)CCCCO[C@@H]1CN(C)C(=O)c1ccccc1`, for which the relative growth was inactive: 0.98. Regarding `CC(C)CC#Cc1ccc2c(c1)O[C@H](CN(C)C(=O)c1ccncc1)[C@H](C)CN([C@H](C)CO)S2(=O)=O`, the relative growth was inactive: 0.966.

As to `COc1ccc(CN(C)C[C@@H]2OCCCC[C@H](C)Oc3ccc(NC(=O)Nc4cccc5ccccc45)cc3C(=O)N([C@@H](C)CO)C[C@@H]2C)cc1`, the relative growth was inactive: 0.998. For the molecule `CC(C)c1nc(C(=O)N2CCC[C@@H](N)CC2)cs1`, the relative growth was inactive: 0.976. The result for `Cc1noc(C)c1NC(=O)N(C)C[C@@H]1Oc2ccc(NS(=O)(=O)c3c(C)noc3C)cc2CC(=O)N([C@@H](C)CO)C[C@H]1C` reads inactive: 0.972. As for `CCCC(=O)Nc1ccc2c(c1)C(=O)N(C)C[C@@H](OC)[C@H](C)CN(C(=O)Cc1cccnc1)[C@H](C)CO2`, the relative growth is inactive: 1.01.

`Cc1noc(C)c1NC(=O)Nc1cccc2c1O[C@H](CN(C)C(=O)Nc1ccc(C(F)(F)F)cc1)[C@H](C)CN([C@H](C)CO)C2=O`: the relative growth is inactive: 0.992. Regarding `CN1CCN(C(=O)C[C@H]2CC[C@H]3[C@@H](COc4ccc(NC(=O)C5CCCCC5)cc4C(=O)N3C)O2)CC1`, the relative growth is inactive: 0.997.

Regarding `C[C@@H]1CN([C@@H](C)CO)C(=O)CCCn2cc(nn2)CO[C@@H]1CN(C)S(C)(=O)=O`, the relative growth is inactive: 0.987. On to `COc1ccccc1C#Cc1cnc2c(c1)C(=O)N([C@@H](C)CO)C[C@H](C)[C@@H](CN(C)C(=O)c1ccc3c(c1)OCO3)O2`, for which the relative growth is inactive: 1.03. The result for `COc1cccc(S(=O)(=O)N(C)C[C@@H]2Oc3ncc(C#CCC(C)C)cc3C(=O)N([C@@H](C)CO)C[C@H]2C)c1` reads inactive: 1.04; that for `C[C@H]1CN([C@@H](C)CO)C(=O)c2cc(/C=C/c3ccccc3)cnc2O[C@@H]1CN(C)C(=O)Nc1ccc(C(F)(F)F)cc1`, inactive: 1.02; that for `C[C@H](CO)N1C[C@H](C)[C@@H](CN(C)Cc2ccc(C(=O)Nc3ccccc3N)cc2)Oc2c(NS(=O)(=O)c3ccc(Cl)cc3)cccc2C1=O`, inactive: 1.02. Consider `C[C@@H]1CN([C@@H](C)CO)C(=O)c2cc(NC(=O)CCN3CCOCC3)ccc2O[C@H]1CN(C)CC1CCCCC1`, for which the relative growth was inactive: 0.971. In the case of `Cc1noc(C)c1NC(=O)Nc1ccc2c(c1)C(=O)N([C@H](C)CO)C[C@H](C)[C@H](CN(C)S(=O)(=O)c1ccccc1)O2` it was inactive: 0.999; in that of `C[C@@H]1CN([C@H](C)CO)C(=O)c2cccc(NS(=O)(=O)c3ccc(Cl)cc3)c2O[C@@H]1CN(C)Cc1ccc(-c2ccccc2)cc1`, inactive: 1.06; in that of `C[C@@H]1CN([C@@H](C)CO)C(=O)Cc2cc(NC(=O)Cn3cnnn3)ccc2O[C@@H]1CN(C)S(C)(=O)=O`, inactive: 0.99. Regarding `CO[C@H]1CN(C)C(=O)c2cc(NS(C)(=O)=O)ccc2OC[C@H](C)N(C(=O)c2ccc3c(c2)OCO3)C[C@H]1C`, the relative growth was inactive: 0.963. Take `CCCCCCCCCCCCC[N+](C)(C)Cc1ccccc1.O.[Cl-]`: the relative growth is active: 0.0544.

In the case of `C[C@@H]1CCCCO[C@@H](CN(C)Cc2ccc(Cl)c(Cl)c2)[C@H](C)CN([C@@H](C)CO)C(=O)c2cc(NC(=O)Nc3ccccc3)ccc2O1`, the relative growth is inactive: 0.994.

The values are drawn from the supplement of paper PMC9446081.
